{"source": "the supplement of paper PMC11417369", "note": "± gives the standard deviation of the averaged measurements. The list shows a part of the results.", "data": [{"system": "PfAP2-EXP AP2 domain (GST-tagged)", "test": "gcPBM binding intensity (ln(normalized median fluorescence intensity)); higher = stronger DNA binding", "in_short": "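An Agilent 4 × 180k array of primer-extended double-stranded 36-bp intergenic genomic probes, with negative controls, was incubated for 1 h with GST-tagged P. falciparum DNA-binding domains expressed in E. coli. Alexa488 anti-GST antibody detected bound protein, scanned at 488 nm. Binding intensity is the highest Masliner-normalised natural-log median intensity across replicate spots of either probe orientation.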", "values": [{"sequence": "AAAAAAACACACACATATATATATATATATATATAT [GTGCAC_negctrl_site498]", "gcPBM binding intensity (ln)": "10.2 ± 0.41"}, {"sequence": "AAGAAAAAGAATAACCTTATTTCTATATACTAATTT [TGCATGCA_negctrl_site477]", "gcPBM binding intensity (ln)": "7.96 ± 0.48"}, {"sequence": "ATCAAAATTGTCATTACACACCTTTATTTTTATAAT [CACACA_site5071]", "gcPBM binding intensity (ln)": "8.69 ± 0.38"}, {"sequence": "AAATAAATAAATAGACGTACAAAAATATTATACATT [XGTACX_site6776]", "gcPBM binding intensity (ln)": "8.46 ± 0.35"}, {"sequence": "GATATGATGTGTTTGGTAGTTTTTGATGTTGGCATG [GTGCAC_negctrl_site506]", "gcPBM binding intensity (ln)": "8.63 ± 0.56"}, {"sequence": "AATAATGAAAAAATGAATAAAATTACTATATAATTC [XGTACX_negctrl_site457]", "gcPBM binding intensity (ln)": "8.18 ± 0.18"}, {"sequence": "TATAAATGTGTATGCGCATGTAAAAATATAATTTAT [TGCATGCA_site750]", "gcPBM binding intensity (ln)": "9.07 ± 0.43"}, {"sequence": "GTAAATAATAAACACCGTACATGGTATAATTCAATG [XGTACX_site3655]", "gcPBM binding intensity (ln)": "8.65 ± 0.35"}, {"sequence": "AAAATTTTTTGAAATAGTACTTTTTTATATATATAT [XGTACX_site2634]", "gcPBM binding intensity (ln)": "9.77 ± 0.071"}, {"sequence": "ATAAGGTTACAACAAACACACAAAGGAATATACACA [CACACA_site7840]", "gcPBM binding intensity (ln)": "9.01 ± 0.47"}, {"sequence": "AGGTGCTTAATATATACACACATACAGATATATATA [CACACA_site5552]", "gcPBM binding intensity (ln)": "8.805 ± 0.049"}, {"sequence": "GAACTCATTACAAAGTGTACAAATTAAATAAATGGT [XGTACX_site3995]", "gcPBM binding intensity (ln)": "8.84 ± 0.36"}, {"sequence": "TTTTTCTTATTTGGATTGCACTACATATATATATAT", "gcPBM binding intensity (ln)": "10.14 ± 0.078"}, {"sequence": "CAACAAAATAAACACACACACACAAACACAAAAAAA [CACACA_site5806]", "gcPBM binding intensity (ln)": "8.53 ± 0.59"}, {"sequence": "TATAAATTTATATATGCATGTCAGAAAAAAAAGTAA [TGCATGCA_site414]", "gcPBM binding intensity (ln)": "8.99 ± 0.37"}, {"sequence": "ACAAAAAATTAATGAGAAATGGAATAATAAGTTATA [GTGCAC_negctrl_site321]", "gcPBM binding intensity (ln)": "8.6 ± 0.36"}, {"sequence": "TGTATACCTTAATATACACACATACCTATATTTATA [CACACA_site6746]", "gcPBM binding intensity (ln)": "8.44 ± 0.4"}, {"sequence": "TATAAATAGAGGAAGCGTACATATATATATATATAT [XGTACX_site4993]", "gcPBM binding intensity (ln)": "10.1 ± 0.37"}, {"sequence": "AAGAAAAAAAAAAAAACACACATATATATATATATA [CACACA_site2027]", "gcPBM binding intensity (ln)": "10.2 ± 0.13"}, {"sequence": "ATATATAAATATATATGTACATAAATATATATCTTT [XGTACX_site6910]", "gcPBM binding intensity (ln)": "8.57 ± 0.31"}, {"sequence": "GGATATTAATAAATATGTACATATGTAGATTTATTA [XGTACX_site554]", "gcPBM binding intensity (ln)": "8.41 ± 0.47"}, {"sequence": "TATTTTTTTTTTTTTTGTACACATAATTGTAATCGT [XGTACX_site8415]", "gcPBM binding intensity (ln)": "8.67 ± 0.13"}, {"sequence": "CCACAGGATTGGTTCAAACACACATATTATATGACT [CACACA_site661]", "gcPBM binding intensity (ln)": "8.48 ± 0.44"}, {"sequence": "CATATAAAAATGTGCACACACACACCGATATATATT [CACACA_site4940]", "gcPBM binding intensity (ln)": "8.94 ± 0.21"}]}]}
